Measured values from article PMC7819943, “Rice protein-binding microarrays: a tool to detect cis-acting elements near promoter regions in rice”.
The other results are listed elsewhere or left out.

The sequences below were run against T1, OsWOX13 (Oryza sativa, UniProt Q5QMM3 1-267) (assay: protein-binding microarray (RPBM); PBS, 2% BSA, 51.3 ng/ul salmon testes DNA, 50 uM zinc acetate, 200 nM TF, 25 C, 1 h; high values mean tight binding). Conditions: protein: recombinant; tags: N-terminal polyhistidine and DsRed monomer fusion (pET32a); label: CyDye5-dUTP incorporated in the synthesized complementary strand; 3' TTTTT single-stranded linker to array surface; dsDNA, one strand shown.
T1 sequence: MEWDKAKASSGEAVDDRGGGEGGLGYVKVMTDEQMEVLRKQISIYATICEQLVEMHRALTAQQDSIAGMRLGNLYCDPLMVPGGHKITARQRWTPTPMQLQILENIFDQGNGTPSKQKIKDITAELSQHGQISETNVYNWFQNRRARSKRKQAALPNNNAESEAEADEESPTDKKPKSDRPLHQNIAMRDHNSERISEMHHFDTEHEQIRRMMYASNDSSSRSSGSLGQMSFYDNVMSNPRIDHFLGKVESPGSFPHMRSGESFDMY
How it was run: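 The binding signal is fluorescence intensity per array feature (arbitrary units). Readings came from an Axon 4000B scanner after a washed, 2% BSA-blocked, double-stranded custom Agilent array had been incubated for 1 h at 25 °C with 200 nM protein and 50 µM zinc acetate. The protein was a Ni–NTA-purified transcription factor fused N-terminally to polyhistidine and DsRed, expressed in E. coli BL21-CodonPlus.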
With “TCGTAACTGAATTTCTCCGGATTGAGTAAGAATAGGAAACCGGAGTCACCTAGTGCAG” the binding signal was 8690 fluorescence intensity (a.u.).
“ATTTTCCATTTTGAAAATTGACGGAAATAGTCGCCTACCGCGGAGTCACCTAGTGCAG” was tested, and the binding signal was 6810 fluorescence intensity (a.u.).
With “ATCAAAGCAGGATAAATTAGATGATCTTTAATTATGTTCTCGGAGTCACCTAGTGCAG” the binding signal was 5250 fluorescence intensity (a.u.).
“ATTGATGTTAATGAATCTAGATATATATATTTATCTAGATCGGAGTCACCTAGTGCAG” was tested, and the binding signal was 3470 fluorescence intensity (a.u.).
For “CATCACGGAGGAGTTGATTGGCATGCTCTGAAAGTTACTTCGGAGTCACCTAGTGCAG”, the binding signal was 30000 fluorescence intensity (a.u.).
“TGGAATTTTGAGTGTGTGATTGCGTTATTACGTTGCAAGTCGGAGTCACCTAGTGCAG” was tested, and the binding signal was 3550 fluorescence intensity (a.u.).
“TTGATAGTAAATCAAACATTAATAAAGGCCTGTTCACTTTCGGAGTCACCTAGTGCAG” was tested, and the binding signal was 8860 fluorescence intensity (a.u.).
With “AAACTAATTGCTCAGGAGGGATTTAGGGGTAACTCTTAATCGGAGTCACCTAGTGCAG” the binding signal was 10400 fluorescence intensity (a.u.).
“AGAAATCACGAACATGAAATTGGACAGACTTCACGGCACTCGGAGTCACCTAGTGCAG” was tested, and the binding signal was 8800 fluorescence intensity (a.u.).
For “ATACGCTTCTTAATTTAGTTCCCTCCCATTCCCTTTTACCCGGAGTCACCTAGTGCAG”, the binding signal was 3190 fluorescence intensity (a.u.).
With “GACATAAACTGGAATAAGTCCACTTGCCTTCCCTCAACTTCGGAGTCACCTAGTGCAG” the binding signal was 3600 fluorescence intensity (a.u.).
In the case of “TTAACAGCAACAAATTGTTGGCCAGCCACGTCCCGGGTCCCGGAGTCACCTAGTGCAG”, the binding signal is reported as 7980 fluorescence intensity (a.u.).
In the case of “CTTTGTTTCAATAATTTGAATTTGAATTTCAAATTATGACCGGAGTCACCTAGTGCAG”, the binding signal is reported as 15400 fluorescence intensity (a.u.).
In the case of “GTAGATTTGATCGCTGCCTCTTGCGGTTAAATTCTCGGTGCGGAGTCACCTAGTGCAG”, the binding signal is reported as 9220 fluorescence intensity (a.u.).
For “ACTATGCTTACAATCACGTCCATCATCAAGTATTTAGATGCGGAGTCACCTAGTGCAG”, the binding signal was 6540 fluorescence intensity (a.u.).
For “ATAATTTATTAGATTGTAAATTTAAGAGATTTAAATACAACGGAGTCACCTAGTGCAG”, the binding signal was 22100 fluorescence intensity (a.u.).
For “CATGATTAGCCATAAGAGTTACAGTAACCCACATGTGCTACGGAGTCACCTAGTGCAG”, the binding signal was 40700 fluorescence intensity (a.u.).
“CAGAAGCTGATTTTGTTTGTGTGTAAATGAATTTGATCACCGGAGTCACCTAGTGCAG” was tested, and the binding signal was 4720 fluorescence intensity (a.u.).
In the case of “GTTGCGTGCAACAATTGGGCTAATTGATTGCACACGAGAACGGAGTCACCTAGTGCAG”, the binding signal is reported as 16900 fluorescence intensity (a.u.).
In the case of “TTTTAAACTATGTTAACACAAGTTTGGTTACATGTCAGGCCGGAGTCACCTAGTGCAG”, the binding signal is reported as 4030 ± 134 fluorescence intensity (a.u.).
“TTCTGATAGAGAATCGAAATGGGCTACTCGTAGAATGAATCGGAGTCACCTAGTGCAG” was tested, and the binding signal was 4460 fluorescence intensity (a.u.).
With “TGGATGATAATTTAACATGTTTATATTTGAAAAGCTCTTACGGAGTCACCTAGTGCAG” the binding signal was 13500 fluorescence intensity (a.u.).
With “GGTGATTGATAGCGTGGCTGTTCTTGCTATATCAATTTATCGGAGTCACCTAGTGCAG” the binding signal was 47200 fluorescence intensity (a.u.).
“TTACTAATTTTAATCTTTGCCTAATTTGCTACCCTGACTACGGAGTCACCTAGTGCAG” was tested, and the binding signal was 25500 fluorescence intensity (a.u.).
For “CCACCACCTACCAAAATTGATGGACACCAAAATAAATCCGCGGAGTCACCTAGTGCAG”, the binding signal was 5620 fluorescence intensity (a.u.).
For “AACATGATGATGATATGAATACTATATAGCGTACTCTTTTCGGAGTCACCTAGTGCAG”, the binding signal was 5510 fluorescence intensity (a.u.).
With “ACTGATAACTTCCAACTGATAATTGGAGAAGGAGGGTTTGCGGAGTCACCTAGTGCAG” the binding signal was 12400 fluorescence intensity (a.u.).
“GAGCTAATATCAATCTATCATGTGTCTATGCTCCTACCCTCGGAGTCACCTAGTGCAG” was tested, and the binding signal was 23500 fluorescence intensity (a.u.).
With “CATTAATTGTATTAGCACCTTTCTCTCATGCATGCCGCCCCGGAGTCACCTAGTGCAG” the binding signal was 38600 fluorescence intensity (a.u.).
With “GACGAAAATTAGACAGTCCGACAAATAGAGGGACCTAAAGCGGAGTCACCTAGTGCAG” the binding signal was 3410 fluorescence intensity (a.u.).
With “GGAACTGATTGTATGCCTTCTGACTGTATAAACTATTCATCGGAGTCACCTAGTGCAG” the binding signal was 20800 fluorescence intensity (a.u.).
“AATCTAATCCATCAAATTAAAGGGATGGCTTAGATTAAGTCGGAGTCACCTAGTGCAG” was tested, and the binding signal was 4690 fluorescence intensity (a.u.).
For “TGACTAAATTCAAATCAATTTGGGAAATAATTCCATGTTCCGGAGTCACCTAGTGCAG”, the binding signal was 16300 fluorescence intensity (a.u.).
For “TTTCTTTGACAGGGTGATGTTGGTTGTGGTAAAACCGTAGCGGAGTCACCTAGTGCAG”, the binding signal was 6810 fluorescence intensity (a.u.).
“GATTAATTTTGTTTCTGTTATTAACTCGACAGTTTGTGTGCGGAGTCACCTAGTGCAG” was tested, and the binding signal was 36300 fluorescence intensity (a.u.).
“AGCTGTCATTAATTAATTACTAGTAGCTGTTGTTCATGTACGGAGTCACCTAGTGCAG” was tested, and the binding signal was 37800 fluorescence intensity (a.u.).
“GAATCTATTAAGCCTAATTAATCCGTTATTATAGCAAATACGGAGTCACCTAGTGCAG” was tested, and the binding signal was 6470 fluorescence intensity (a.u.).
In the case of “CTATTTCTTTGATAAATTAATAGATGTTTACTAGTACTCCCGGAGTCACCTAGTGCAG”, the binding signal is reported as 5260 fluorescence intensity (a.u.).
With “TTAGCAAATTAAGATCATCTCATCTCTATCCATGTATTCACGGAGTCACCTAGTGCAG” the binding signal was 4260 fluorescence intensity (a.u.).
“AATTAATTAGGTGAAGAAATTAAAAGATAAGTTGCTTTAACGGAGTCACCTAGTGCAG” was tested, and the binding signal was 17200 fluorescence intensity (a.u.).
For “CAATTTAATTAGACCGCAAATCCTAGATCGAGGTGACGCCCGGAGTCACCTAGTGCAG”, the binding signal was 12900 fluorescence intensity (a.u.).
In the case of “ATTTATTTTATTATTAATTTATATTTAATATATATTTAATCGGAGTCACCTAGTGCAG”, the binding signal is reported as 4280 fluorescence intensity (a.u.).
